{"source": "PubChem BioAssay AID686970", "about": "(National Center for Advancing Translational Sciences (NCATS), 2013)", "note": "In all, about 360,000 compounds went through this assay and about 6,000 (1.7%) were called active. This list was built around the results that the source calls inconclusive (neither active nor inactive); the mix of calls is not that of the screen. The call rests on the fitted dose curve; in most records, active means well fitted cell-killing curve with a large enough effect; inconclusive means small, poorly fitted or top-dose-only effect, or effect the other way; inactive means flat fitted curve, though single readings scatter. No potency is given beside an inconclusive call; the fits are too rough. Potency means the concentration at half of the fitted maximal effect; tags describe the fitted curve by direction and shape.", "data": [{"assay": "qHTS for induction of synthetic lethality in tumor cells producing 2HG: qHTS for the HT-1080-NT fibrosarcoma cell line;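 further: NT is the 2HG producing partner of a matched IDH1 knockdown line; nearly all actives have a fitted effect of over 55% in size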;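 on activity, negative = less viability: 0% = DMSO-treated cells and -100% = media-only wells without cells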", "details": "HT-1080-NT fibrosarcoma viability, CellTiter-Glo ATP luminescence, 48 h; activity, negative = less viability: at 46.1 µM (top of the series) unless noted", "outline": "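Viability of the 2HG-overproducing fibrosarcoma line after 48 hours of compound exposure at 37 degrees C was determined by luminescence with CellTiter-Glo, and concentration-effect curves were then fitted and categorized.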", "values": [{"smiles": "O=S(=O)(c1ccc2c(c1)CCCN2)N1CCCC2CCCCC21", "note": "(centres undefined)", "Potency": "inconclusive [cytotoxic, single point]"}, {"smiles": "COc1ccc(Cl)cc1NC(=S)NCCc1c[nH]c2ccccc12", "Potency": "inconclusive [cytotoxic, single point]"}, {"smiles": "N=c1sccn1CC(=O)Nc1cccc(Oc2ccccc2)c1", "Potency": "inconclusive [cytotoxic, partial curve]"}, {"smiles": "O=C(NCCCSc1ccccc1)c1cc(Cl)ccc1O", "Potency": "inconclusive [cytotoxic, single point]"}, {"smiles": "Cn1nc(C(C)(C)C)cc1C(=O)N1CCCCC1c1cc(C(=O)N2CCOCC2)no1", "note": "(centres undefined)", "activity, negative = less viability": "inactive: 2.13%"}, {"smiles": "CS(=O)(=O)N(CC(=O)Nc1ccccc1Sc1ccccc1)c1ccc(F)cc1", "Potency": "inconclusive [cytotoxic, single point]"}, {"smiles": "CSCCC(NS(=O)(=O)Cc1ccccc1)C(=O)NNc1ccccc1", "note": "(centres undefined)", "Potency": "inconclusive [cytotoxic, partial curve]"}, {"smiles": "COc1cc(C)cc(C(=O)C=Cc2ccccc2)c1O", "Potency": "active: 23.1 µM"}, {"smiles": "COc1ccc(NC(=S)N2CCCN(Cc3cc(C)ccc3C)C2)cc1", "activity, negative = less viability": "inactive: -2.52%"}, {"smiles": "CCCC(=O)N(C1CC(C)C(C#N)(C#N)C1(C#N)C#N)N(C)C", "note": "(centres undefined)", "Potency": "inconclusive [cytotoxic, single point]"}, {"smiles": "c1ccc(-c2cc3c(N4CCOCC4)ncnc3s2)cc1", "Potency": "inconclusive [cytotoxic, partial curve]"}, {"smiles": "COc1ccc2nc(SCC(=O)Nc3cc(C)on3)c(C#N)cc2c1", "Potency": "inconclusive [cytotoxic, full curve]"}, {"smiles": "N#CC1=C(N)OC2=C(CCc3ccccc32)C1c1ccccc1", "note": "(centres undefined)", "Potency": "active: 0.92 µM"}, {"smiles": "CNc1ccc(Cl)cc1S(=O)(=O)c1ccccc1[N+](=O)[O-]", "Potency": "inconclusive [cytotoxic, single point]"}, {"smiles": "CN(Cc1cc2ccccc2[nH]c1=O)C(=O)c1cccs1", "activity, negative = less viability": "inactive: 14.7%"}, {"smiles": "Cc1ccccc1Cn1c(C)c(C(=O)NCC(C)C)sc1=O", "Potency": "inconclusive [rising, full curve, poor fit]"}, {"smiles": "CCCCNC(=O)C1(C)CCN1C(=O)c1cc2ccccc2s1", "note": "(centres undefined)", "activity, negative = less viability": "inactive: -1.14%"}, {"smiles": "CCCn1c(SCC(=O)Nc2ccccc2Cl)nc(O)cc1=O", "activity, negative = less viability": "inconclusive: -2.94% [cytotoxic]"}, {"smiles": "CCN(CC)C(=O)C1=C(C)N(CCCN2CCCC2=O)C(=O)C(CC(=O)NCc2cccc3ccccc23)C1", "note": "(centres undefined)", "activity, negative = less viability": "inactive: 10.1%"}, {"smiles": "Fc1cccc(/C=N/Nc2nccnc2Cl)c1", "Potency": "active: 11.6 µM"}, {"smiles": "c1cc(CNc2ccc3c(c2)OCO3)ccn1", "activity, negative = less viability": "inactive: 8.05%"}, {"smiles": "O=C(c1ccccc1)c1coc2c1C(=O)c1ccccc1C2=O", "Potency": "active: 16.4 µM"}, {"smiles": "Cc1ccc(-n2cc(CN3CCN(C(=O)c4ncn[nH]4)CC3)c(-c3ccc(F)cc3)n2)cc1", "activity, negative = less viability": "inactive: 26.2%"}, {"smiles": "COc1cc2c(cc1OC)CN(C(=O)c1cc(=O)c3ccccc3o1)CC2", "Potency": "active: 5.8 µM"}, {"smiles": "CCNC(=O)c1cc2c(c(-c3cccc(-c4cc5ccccc5o4)c3)n1)[C@H](CCO)N(C(=O)NC(C)C)C2", "Potency": "inconclusive [cytotoxic, single point]"}, {"smiles": "CCCOc1ccccc1C1NC(=O)NC(C)=C1C(=O)OCc1ccccc1", "note": "(centres undefined)", "Potency": "inconclusive [cytotoxic, single point]"}, {"smiles": "O=C(Cc1cccc(NC(=O)C2CCCN(C(=O)C3CCCC3)C2)c1)Nc1cccc(C(=O)N2CCOCC2)c1", "note": "(centres undefined)", "activity, negative = less viability": "inactive: 1.69%"}, {"smiles": "O=C(CCc1ccccc1)NC(=S)NCc1ccco1", "activity, negative = less viability": "inactive: -5.68%"}, {"smiles": "COc1ccc(SC[C@H](CC(C)C)N2CCN(CCc3ccccc3)CCC2=O)cc1", "Potency": "inconclusive [cytotoxic, single point]"}, {"smiles": "Cc1ccc(S(=O)(=O)N2[C@@H](c3ccc(C(C)(C)C)cc3)C(C(=O)O)=CC[C@H]2c2ccc(Cl)cc2)cc1", "Potency": "inconclusive [cytotoxic, single point]"}, {"smiles": "COc1cc2cc(-c3ccc(O)cc3O)nc(C)c2cc1OC", "activity, negative = less viability": "inactive: -11.8%"}, {"smiles": "Cc1cc(C)c2nc(SCC#N)cc(C)c2c1", "Potency": "inconclusive [cytotoxic, single point]"}, {"smiles": "CCN(CC)c1ccc2c(-c3ccc(S(=O)(=O)O)cc3S(=O)(=O)[O-])c3ccc(=[N+](CC)CC)cc-3oc2c1", "Potency": "inconclusive [cytotoxic, partial curve]"}, {"smiles": "COc1ccc(C)cc1Nc1n[n+](-c2ccccc2)c(-c2cccc(Cl)c2Cl)s1", "Potency": "inconclusive [cytotoxic, single point]"}, {"smiles": "COc1ccc2[nH]cc(CCNC(=O)C3CCCCC3)c2c1", "activity, negative = less viability": "inactive: -0.33%"}, {"smiles": "Cc1ccc2c(c1)c1c3n2CCN(CC(O)CNC(C)C)C3CCC1", "note": "(centres undefined)", "Potency": "inconclusive [cytotoxic, single point]"}, {"smiles": "CCc1ccc(CNC(=O)c2ccc3c(c2)NC(=O)C(N2CCOCC2)S3)cc1", "note": "(centres undefined)", "Potency": "inconclusive [cytotoxic, single point]"}, {"smiles": "COc1cccc(CCN2CCC(CNS(=O)(=O)c3cc(-c4cc(C)no4)ccc3C)CC2)c1", "Potency": "inconclusive [cytotoxic, single point]"}, {"smiles": "CCc1cc2c(=O)[nH]c(Cc3ccccc3)nc2s1", "Potency": "inconclusive [cytotoxic, single point]"}, {"smiles": "CC1Oc2ccccc2N(CC(=O)Nc2ccc3c(c2)OCCO3)C1=O", "note": "(centres undefined)", "activity, negative = less viability": "inactive: 11.2%"}, {"smiles": "CCOC(=O)c1c(C)c(C(=O)NCc2ccc(OC)cc2)c(C)n1C", "activity, negative = less viability": "inactive: -5.79%"}, {"smiles": "C=C[C@H]1CN2CC[C@H]1C[C@H]2[C@H](O)c1ccnc2ccc(OC)cc12", "Potency": "inactive"}, {"smiles": "C[C@@H]1CCCCO[C@H](CN(C)Cc2ccc3c(c2)OCO3)[C@@H](C)CN([C@H](C)CO)C(=O)c2cc(NC(=O)c3ccccc3)ccc2O1", "Potency": "inconclusive [cytotoxic, single point]"}, {"smiles": "Cc1ccc(C(=O)NC(=S)Nc2ccc(-c3cc4ccccc4oc3=O)cc2)c(C)c1", "activity, negative = less viability": "inactive: 6.37%"}, {"smiles": "CN(C(=O)CN1CCN(c2cc(-c3ccc(-c4ccccc4)cc3)ncn2)CC1)c1ccccc1", "Potency": "active: 14.6 µM"}, {"smiles": "COc1ccc(CN(Cc2nc3ccccc3c(=O)[nH]2)C(=O)NC2CCCCC2)cc1", "activity, negative = less viability": "inactive: -10.5%"}, {"smiles": "CC1CCCN(CCCOc2ccccc2-c2ccccc2)C1", "note": "(centres undefined)", "Potency": "inconclusive [cytotoxic, partial curve, poor fit]"}, {"smiles": "CC(C)(C)c1ccc(CC(=O)N2CCC2(C)C(=O)NS(=O)(=O)c2ccccc2)cc1", "note": "(centres undefined)", "activity, negative = less viability": "inactive: 4.11%"}, {"smiles": "Cc1ccc(N(C(=O)c2ccco2)C2C=CS(=O)(=O)C2)cc1", "note": "(centres undefined)", "activity, negative = less viability": "inactive: 14.6%"}, {"smiles": "CC(C)CNC(=O)C1C(=O)Nc2ccccc2C(=O)N1C(C)(C)C", "note": "(centres undefined)", "activity, negative = less viability": "inactive: 13.4%"}, {"smiles": "C=C(C)Cn1c2ccc(NC(=O)CCc3cccc(Cl)c3)cc2c(=O)n1C", "Potency": "inconclusive [cytotoxic, single point]"}, {"smiles": "COc1cccc(/C=N/n2c(-c3ccco3)nc3ccccc3c2=O)c1OC", "activity, negative = less viability": "inactive: 18.8%"}, {"smiles": "CCC(c1nc2ccccc2[nH]1)N(C(=O)C1=NNC(=O)CC1)c1ccccc1", "note": "(centres undefined)", "Potency": "inconclusive [rising, partial curve, poor fit]"}, {"smiles": "CNC(=S)N(CCc1c(C)[nH]c2ccc(Cl)cc12)Cc1cc(OC)c(OC)c(OC)c1", "activity, negative = less viability": "inconclusive: 0.184%"}, {"smiles": "C=CC(=O)OCCOCCOCCOCCOC(=O)C=C", "Potency": "active: 20.6 µM"}, {"smiles": "OCCC1CN(Cc2ccc(Oc3ncccn3)cc2)CCN1C1CCCC1", "note": "(centres undefined)", "activity, negative = less viability": "inactive: 0.311%"}, {"smiles": "CCN(c1ccccc1)S(=O)(=O)c1ccc(C(=O)NCc2ccco2)cc1", "activity, negative = less viability": "inactive: 0.395%"}, {"smiles": "Cc1cc(C(=O)NN=C2CCCCC2)c2ccccc2n1", "Potency": "inconclusive [cytotoxic, single point]"}, {"smiles": "O=C(NCC(c1cccs1)N1CCOCC1)c1ccccc1NS(=O)(=O)c1cccc([N+](=O)[O-])c1", "note": "(centres undefined)", "Potency": "inconclusive [cytotoxic, partial curve]"}, {"smiles": "CCc1ccc2[nH]c(=O)c(CN(CCN(CC)CC)C(=O)Nc3ccccc3OC)cc2c1", "Potency": "active: 16.4 µM"}, {"smiles": "O=C(CCN1C(=O)/C(=C/c2ccc(F)cc2)SC1=S)NNC(=O)c1ccncc1", "activity, negative = less viability": "inactive: 0.572%"}, {"smiles": "COc1ccc(N/N=C(/C(N)=O)C2=NC(C)(C)Cc3ccccc32)cc1", "Potency": "inconclusive [cytotoxic, single point]"}, {"smiles": "C=CC[n+]1c(-c2ccc(C)cc2)csc1NNC(=O)Nc1ccccc1", "Potency": "inconclusive [cytotoxic, single point]"}, {"smiles": "CCOC(=O)C1(Cc2cccc(OC)c2)CCN(Cc2cccc3c2OCO3)CC1", "Potency": "inconclusive [cytotoxic, partial curve]"}, {"smiles": "CCCCC[n+]1cccc2c3ccccc3ccc21", "Potency": "inconclusive [cytotoxic, partial curve]"}, {"smiles": "Cc1cc2nc(-c3ccc(Cl)cc3)c(Cc3cccc(F)c3)n2c(C)c1Br", "Potency": "inconclusive [cytotoxic, single point]"}, {"smiles": "O=C(Cc1cccs1)NCCSc1c(-c2ccc(Cl)cc2)[nH]c2ccccc12", "Potency": "inconclusive [cytotoxic, single point]"}, {"smiles": "O=C1CC(c2cc(F)ccc2F)c2cc3c(cc2N1)CCC3", "note": "(centres undefined)", "Potency": "active: 2.59 µM"}, {"smiles": "Cc1ccc(S(=O)(=O)N(CC(O)CN2CCCC2)c2ccccc2)cc1", "note": "(centres undefined)", "activity, negative = less viability": "inactive: -5.47%"}, {"smiles": "O=C(CSc1ccc(Br)c2cccc(Cl)c12)Nc1ccc(S(=O)(=O)Nc2nccs2)cc1", "Potency": "inconclusive [cytotoxic, single point]"}, {"smiles": "COc1ccc(-c2cc(C(F)(F)F)nc(SCC(=O)NCCN3CCOCC3)n2)cc1OC", "activity, negative = less viability": "inconclusive: 30.1%"}, {"smiles": "CC(=O)Nc1ccc(-c2ccnc3c2CC(C(=O)NCc2ccc(N4CCN(C)CC4)cc2)O3)cc1", "note": "(centres undefined)", "activity, negative = less viability": "inactive: 9.13%"}, {"smiles": "O=C(CSc1ncnc2ccccc12)N1CCCC1", "activity, negative = less viability": "inactive: -2.96%"}, {"smiles": "O=C(NCc1ccccc1)C1=C[C@H](c2csc3ccccc23)C[C@H](OCc2ccc(CO)cc2)O1", "Potency": "inconclusive [cytotoxic, single point]"}]}]}
